Assay results taken from PubChem BioAssay AID1347043 (National Center for Advancing Translational Sciences (NCATS), 2019).
Hit rate of the full screen: of about 76,000 compounds, about 1,900 (2.5%) were called active. The inconclusive results got no clear call from the source; some entries with a clear call stand among them for comparison. Calls follow the shape of the dose curve; as a rule, active = well fitted inhibition curve with a large enough effect; inconclusive = small, poorly fitted or top-dose-only effect; inactive = flat fitted curve, though single readings scatter. Where the call is inconclusive, the potency comes from a doubtful curve fit.

What follows are compounds tested against Luciferin 4-monooxygenase (Photinus pyralis) (UniProt P08659) (assay: Firefly luciferase inhibition profiling of diverse chemical library using quantitative high-throughput screening). Conditions: purified P. pyralis luciferase, luminescence, biochemical; series mostly up to 115 µM.
Method in brief: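 FLuc 10nM, D-luciferin 10uM, ATP 10uM, Mg acetate 10mM, Tris acetate pH 7.5, Tween/BSA; cpd qHTS; enzyme added last; CCD luminescence.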
Also: nearly all actives have a fitted effect of over 65% in size.
Potency is read from the fitted curve at half-maximal effect; tags tell the direction and shape of the fitted curve.

UniProt P08659, sequence (P08659 whole entry, looked up): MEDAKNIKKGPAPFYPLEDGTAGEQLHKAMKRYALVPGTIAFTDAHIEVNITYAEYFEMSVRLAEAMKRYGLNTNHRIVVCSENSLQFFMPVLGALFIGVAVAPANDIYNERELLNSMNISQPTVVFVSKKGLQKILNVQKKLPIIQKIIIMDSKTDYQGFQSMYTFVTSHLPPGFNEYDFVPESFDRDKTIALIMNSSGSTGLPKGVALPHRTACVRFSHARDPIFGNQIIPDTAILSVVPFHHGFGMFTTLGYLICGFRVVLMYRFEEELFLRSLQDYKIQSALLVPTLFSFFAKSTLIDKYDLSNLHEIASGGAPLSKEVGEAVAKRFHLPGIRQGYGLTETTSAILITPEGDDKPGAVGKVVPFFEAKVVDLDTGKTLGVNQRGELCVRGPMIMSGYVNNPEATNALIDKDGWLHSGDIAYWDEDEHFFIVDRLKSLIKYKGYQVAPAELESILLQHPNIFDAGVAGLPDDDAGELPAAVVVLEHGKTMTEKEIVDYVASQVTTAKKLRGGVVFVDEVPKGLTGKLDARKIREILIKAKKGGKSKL

Question: Which Potency does the source give for `CN1c2cc(C(=O)Nc3ccc(Cl)cc3)ccc2C(=O)N2CCCCCC21` (centres undefined) here?
Answer: inconclusive: 39.8 µM [inhibitor, partial curve]

Question: Which Potency does the source give for `CC(=O)N1CCC(N2CCC[C@H]2c2nc(-c3ccc(-c4ccncc4)nc3)no2)CC1` here?
Answer: inactive

Question: Which Potency does the source give for `Cc1noc(-c2ccc(OC3CN(C(=O)Nc4ccccc4)C3)cc2)n1` here?
Answer: inconclusive: 44.7 µM [inhibitor, partial curve]

Question: Which Potency does the source give for `Cn1cnc2ccc(-c3ccsc3)nc2c1=O` here?
Answer: inconclusive: 112 µM [inhibitor, partial curve, poor fit]

Question: With `CC1(C(=O)NCc2cccc(F)c2)CCCc2cnc(Nc3cccnc3)nc21` (centres undefined) as the compound, how does the Potency read?
Answer: inconclusive: 100 µM [inhibitor, partial curve, poor fit]

Question: Which Potency does the source give for `O=C(NC1CCCN(c2cc(-c3ccc(F)cc3)[nH]n2)C1)c1ccc2c(c1)OCO2` (centres undefined) here?
Answer: inconclusive: 11.2 µM [inhibitor, full curve]

Question: How did the Potency turn out when `O=C(c1ccc2cc[nH]c2c1)N1CCC2(CC1)N=C(c1ccccc1)NO2` was run?
Answer: active: 28.2 µM

Question: Which Potency does the source give for `Cc1ccc(C(=O)N2CCCN(c3cc(-c4ccccc4)[nH]n3)CC2)cc1` here?
Answer: inactive

Question: Which Potency does the source give for `Fc1cccc(Nc2nc(-c3ccccc3)no2)c1` here?
Answer: active: 3.16 µM

Question: For `CCCN(C)C(=O)c1c(-c2ccccc2)noc1[C@H](C)O`, which Potency is on record?
Answer: inactive

Question: With `COc1ccc(C2=NOC3(CCN([S+](=O)([O-])c4ccccc4)C3)C2)cc1` (centres undefined) as the compound, how does the Potency read?
Answer: inconclusive: 44.7 µM [inhibitor, partial curve]

Question: With `O=C(c1cccc(C(F)(F)F)c1)N1CCOCC2(CN(Cc3ccccc3)C2)C1` as the compound, how does the Potency read?
Answer: inactive

Question: With `COc1nccnc1-c1cc(NCCN(C)C)nc2[nH]ccc12` as the compound, how does the Potency read?
Answer: inactive

Question: For `CCN1C(=O)C2CC3(CCN(Cc4cnn(CC)c4C)CC3)CN2C1=O` (centres undefined), which Potency is on record?
Answer: inactive

Question: `CC(=O)Nc1ccc(CN2CCC3(COc4ccccc4C(=O)N3)C2)cc1` (centres undefined) was tested. Which Potency did it give?
Answer: inactive

Question: With `CCN(CC)C(=O)CCc1c(C)nn(-c2ccccc2)c1Oc1ccc(F)cc1F` as the compound, how does the Potency read?
Answer: inactive

Question: How did the Potency turn out when `COc1ccc(-c2cc(N3CCCC(NC(=O)c4sccc4C)C3)n[nH]2)cc1` (centres undefined) was run?
Answer: active: 25.1 µM

Question: `COCCn1cc2c3c(cccc31)CN(C(=O)CCCc1ccccc1)CC2` was tested. Which Potency did it give?
Answer: inactive

Question: Which Potency does the source give for `CCC(C)(C)NC(=O)c1cccc2c1CCN2C(=O)Nc1cccc(C)c1` here?
Answer: active: 7.94 µM

Question: `COc1ccc(CCNC(=O)c2c(C)noc2-c2ccc(C(C)(C)C)cc2)cc1OC` was tested. Which Potency did it give?
Answer: inconclusive: 44.7 µM [inhibitor, partial curve, poor fit]

Question: `CN1CCCC1CCNc1nccc(-c2cnn(-c3ccc(F)cc3)c2)n1` (centres undefined) was tested. Which Potency did it give?
Answer: inconclusive: 44.7 µM [inhibitor, partial curve, poor fit]

Question: `COc1ccc(C(=O)Nc2ccc3c(N4CCOCC4)ncnc3c2)c(C)c1` was tested. Which Potency did it give?
Answer: inconclusive: 35.5 µM [inhibitor, partial curve]

Question: How did the Potency turn out when `COc1ccc(NC(=O)O[C@@H]2CO[C@H]3[C@@H]2OC[C@@H]3NS(=O)(=O)c2ccc(NC(C)=O)cc2)cc1` was run?
Answer: active: 44.7 µM

Question: Which Potency does the source give for `COCCN1CCOc2nc(-c3cc(F)cc(OC)c3)ncc2C1=O` here?
Answer: active: 1.58 µM

Question: How did the Potency turn out when `COCCNc1ncc(-c2ccc(F)cc2)c2c1OCC2` was run?
Answer: active: 15.8 µM

Question: `O=C(Nc1ccc2c(c1)OCCO2)N1c2ccccc2CC1c1nc(C2CC2)no1` (centres undefined) was tested. Which Potency did it give?
Answer: active: 12.6 µM

Question: `Cc1ccc(-c2nc(C(=O)NC(C)c3ccc(F)cc3)no2)cc1` (centres undefined) was tested. Which Potency did it give?
Answer: inconclusive: 50.1 µM [inhibitor, partial curve, poor fit]

Question: For `CN(c1ccccc1)c1ccc2c(n1)CN(Cc1ccc(F)cc1)C(=O)CO2`, which Potency is on record?
Answer: active: 50.1 µM

Question: How did the Potency turn out when `O=C(Nc1ccc(Cl)cc1)C1CCN(C(=O)c2ncn3c2COC(c2ccc(F)cc2)C3)CC1` (centres undefined) was run?
Answer: active: 22.4 µM

Question: `COc1ccccc1-c1cnc(NC(=O)c2cnccn2)c2c1CCO2` was tested. Which Potency did it give?
Answer: inconclusive: 70.8 µM [inhibitor, partial curve]

Question: With `CN1c2cc(C(=O)Nc3ccc(Oc4ccccc4)cc3)ccc2C(=O)N2CCCCC21` (centres undefined) as the compound, how does the Potency read?
Answer: active: 50.1 µM

Question: For `Cc1nccn1CCN(C)Cc1cc2n(n1)CCNC2`, which Potency is on record?
Answer: inactive

Question: For `COCc1cn([C@H]2CO[C@H]3[C@@H]2OC[C@H]3OC(=O)Nc2ccc(C(C)(C)C)cc2)nn1`, which Potency is on record?
Answer: inconclusive: 79.4 µM [inhibitor, partial curve, poor fit]

Question: With `C[C@H](C(=O)N1CCOCC1)C1CC[C@@]2(C)Cc3sc(-c4ccccc4)nc3[C@@H](C)[C@@H]2[C@H]1O` (some centres undefined) as the compound, how does the Potency read?
Answer: active: 14.1 µM

Question: With `O=C(C1COc2ccccc2C1)N1CCC(Cc2noc(C3CC3)n2)CC1` (centres undefined) as the compound, how does the Potency read?
Answer: inactive

Question: With `O=C(NCCC1CCN(C(=O)Nc2cc(F)ccc2F)CC1)c1ccccc1` as the compound, how does the Potency read?
Answer: inconclusive: 50.1 µM [inhibitor, partial curve]

Question: With `Cc1ccc(CN2CCC3(CC2)CN(c2ncccn2)CC3CO)cc1C` (centres undefined) as the compound, how does the Potency read?
Answer: inactive

Question: `COc1cccc(-c2cc3c(=O)n(CCNC(=O)c4cc(F)cc(F)c4)ccn3n2)c1` was tested. Which Potency did it give?
Answer: inactive

Question: `COc1ccc(Nc2ncc(-c3ccccc3OC)c3c2OCC3)cn1` was tested. Which Potency did it give?
Answer: active: 31.6 µM

Question: `COCCN1CCOc2nc(-c3ccc(F)c(Cl)c3)ncc2C1=O` was tested. Which Potency did it give?
Answer: inconclusive: 14.1 µM [inhibitor, full curve, poor fit]

Question: With `CNC(=O)c1cccc(-c2cnc3[nH]cc(CC(=O)N4CCC(OC)CC4)c3c2)c1` as the compound, how does the Potency read?
Answer: inconclusive: 70.8 µM [inhibitor, partial curve]

Question: With `Cc1ccc2oc([C@H]3CCN(Cc4ccc(N(C)C)cc4)C3)nc2c1` as the compound, how does the Potency read?
Answer: active: 44.7 µM

Question: For `C#CCNC(=O)c1onc(-c2ccc(F)cc2)c1[C@H](C)O`, which Potency is on record?
Answer: inactive

Question: With `Cc1ccc(N2CCC(NC(=O)Cc3cccc(F)c3)C2=O)cc1` (centres undefined) as the compound, how does the Potency read?
Answer: inactive

Question: For `Cc1cnc(C(=O)N2CC(N(C)Cc3cccnc3)C2)cn1`, which Potency is on record?
Answer: inconclusive: 50.1 µM [inhibitor, partial curve]

Question: Which Potency does the source give for `CCOc1ccc(-c2cc3c(=O)n(CCNC(=O)c4ccncc4)ccn3n2)cc1` here?
Answer: active: 6.31 µM

Question: `COc1cccc(-c2noc(-c3ccc(N4CCCC(CO)C4)nc3)n2)c1OC` (centres undefined) was tested. Which Potency did it give?
Answer: active: 1.78 µM

Question: `O=C(Nc1ccccc1)N1CCC(Oc2ccccc2-c2nc(-c3ccccc3)no2)C1` (centres undefined) was tested. Which Potency did it give?
Answer: inconclusive: 22.4 µM [inhibitor, full curve]

Question: How did the Potency turn out when `COc1ccc(-c2cc(N3CCCC(NC(=O)C4CCCC4)C3)n[nH]2)cc1` (centres undefined) was run?
Answer: inconclusive: 31.6 µM [inhibitor, partial curve]
